# Test results reported in paper PMC4336329 (PLoS ONE, 2015).
# Screen size: about 310,000 compounds; about 2,200 (0.71%) showed an effect of 50% or more. The effect is printed as a negative number. This is one part of the list.
# Target: human ether-à-go-go-related gene (hERG) potassium channel (human, UniProt Q12809)
# Assay: primary screen, population patch clamp on CHO cells stably expressing hERG
# Chain of human ether-à-go-go-related gene (hERG) potassium channel (Q12809 whole entry, looked up): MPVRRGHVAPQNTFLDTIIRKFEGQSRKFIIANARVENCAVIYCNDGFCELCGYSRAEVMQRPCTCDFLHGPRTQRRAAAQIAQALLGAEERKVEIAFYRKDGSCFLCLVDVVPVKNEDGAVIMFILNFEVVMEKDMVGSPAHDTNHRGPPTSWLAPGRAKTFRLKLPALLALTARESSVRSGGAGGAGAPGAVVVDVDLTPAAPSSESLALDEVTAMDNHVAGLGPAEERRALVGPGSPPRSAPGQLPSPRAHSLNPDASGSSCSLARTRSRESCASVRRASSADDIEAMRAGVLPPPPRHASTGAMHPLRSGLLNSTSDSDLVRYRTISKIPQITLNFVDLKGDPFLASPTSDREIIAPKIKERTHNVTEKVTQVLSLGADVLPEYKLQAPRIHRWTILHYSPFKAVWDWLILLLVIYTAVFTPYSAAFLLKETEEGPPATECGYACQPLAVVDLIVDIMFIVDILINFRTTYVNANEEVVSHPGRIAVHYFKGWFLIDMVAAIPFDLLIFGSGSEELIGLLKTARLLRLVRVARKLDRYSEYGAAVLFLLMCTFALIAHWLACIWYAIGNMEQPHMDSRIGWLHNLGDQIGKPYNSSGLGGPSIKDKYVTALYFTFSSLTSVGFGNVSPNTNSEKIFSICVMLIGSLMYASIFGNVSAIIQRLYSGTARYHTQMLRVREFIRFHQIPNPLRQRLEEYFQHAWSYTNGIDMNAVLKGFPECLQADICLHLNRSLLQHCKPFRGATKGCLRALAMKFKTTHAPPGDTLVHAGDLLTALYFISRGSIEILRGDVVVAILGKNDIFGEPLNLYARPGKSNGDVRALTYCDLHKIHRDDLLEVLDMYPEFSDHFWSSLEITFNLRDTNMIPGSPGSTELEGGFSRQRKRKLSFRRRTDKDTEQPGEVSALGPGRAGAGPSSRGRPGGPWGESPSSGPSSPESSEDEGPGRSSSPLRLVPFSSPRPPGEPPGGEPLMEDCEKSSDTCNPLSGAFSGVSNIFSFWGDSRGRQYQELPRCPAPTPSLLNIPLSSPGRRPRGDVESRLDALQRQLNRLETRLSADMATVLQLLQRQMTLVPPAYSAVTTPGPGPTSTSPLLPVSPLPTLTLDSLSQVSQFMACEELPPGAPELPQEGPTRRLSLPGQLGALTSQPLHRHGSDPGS
row,SMILES,"hERG current change (%, negative = inhibition) at 1uM [%]"
1,COc1c(O)ccc2c1CN1CCc3cc4c(cc3C1C2)OCO4 (centres unmarked),3.77
2,Cc1ccc(S(=O)(=O)c2nc(NCc3ccc4c(c3)OCO4)sc2Cl)cc1,7.31
3,COc1ccc(OC)c(N(CC(=O)Nc2cccc(C(F)(F)F)c2)S(C)(=O)=O)c1,9.72
4,O=C1Nc2ccccc2C12OCCO2,8.92
5,N/C(=N\OC(=O)Nc1ccc(Cl)cc1)c1ncc(C(F)(F)F)cc1Cl,3.63
6,COc1ccc(S(N)(=O)=O)cc1C(N)=O,4.77
7,CC(C)CCN(C(=O)Cc1ccc(Cl)c(Cl)c1)c1c(N)n(Cc2ccccc2)c(=O)[nH]c1=O,6.74
8,[O-][n+]1onc2c1CCC1N(O)C(c3ccccc3)CC21O (centres unmarked),13.4
9,CCC(C(=O)N1CCOCC1)n1nc(C)c2sc3ccccc3c2c1=O (centres unmarked),18.9
10,CC1(C)Cc2cccc(OCC(=O)NCCc3ccccc3)c2O1,11
11,Cn1nnc2cc(C(=O)N3CCC(c4ccccc4)C3)ccc21 (centres unmarked),-2.31
12,C[NH+](C)CCOC(=O)c1ccc(COc2ccccc2Br)o1.[Cl-],4.13
13,NS(=O)(=O)c1ccc(CCNC(=O)COC(=O)CN2C(=O)C3CCCCC3C2=O)cc1 (centres unmarked),2.5
14,Cc1cccc(NC(=O)C(CC(C)C)NC(=O)C2CCC(C)CC2)n1 (centres unmarked),-2.77
15,Cc1cccn2c(=O)c3cc(C#N)c(=NC(=O)c4cccs4)n(CC(C)C)c3nc12,7.98
16,CCCc1cc(=O)[nH]c(SCC(=O)N2CCC(C(=O)OCC)CC2)n1,7.32
17,COc1ccc(NC(=O)c2cc(S(=O)(=O)N3CCCC3)ccc2C)cn1,14.5
18,CC(OC(=O)c1ccc(NC(=O)CC#N)cc1)C(=O)Nc1nc(-c2ccccc2)cs1 (centres unmarked),0.382
19,CC(=O)c1ccc(OCc2cc(C(=O)N3CC4C[C@@H]5CC3C[C@H](C4)C5)no2)cc1,10.9
20,O=C(/C=C/c1cccs1)Nc1ccc(N2CCOCC2)c(S(=O)(=O)Nc2ccccc2Cl)c1,6.01
21,COC(=O)c1ccc(Oc2c(C)oc3cc(OCc4cnn(-c5ccccc5)c4)ccc3c2=O)cc1,4.33
22,O=C1C=C(c2cccc(CO)c2)C[C@@H](c2ccc(Cl)cc2)C1,4.24

row,SMILES,"hERG current change (%, negative = inhibition) at 1uM [%]"
1,CC(=O)Nc1c(C)ccc(S(N)(=O)=O)c1C,5.37
2,CC(=O)Nc1ccc(SC[C@H](C)CN2CC[C@H](C(C)(C)C)CCC2=O)cc1,12.6
3,CCC(C)NC(=O)CSc1nnc(-c2ccoc2C)n1CC1CCCO1 (centres unmarked),10.1
4,O=C(NCC(c1ccco1)N1CCCC1)c1ccccc1F (centres unmarked),15
5,O=C(O)c1ccccc1NCN1C(=O)C2CC=C(Cl)CC2C1=O (centres unmarked),-4.01
6,O=[N+]([O-])c1cc(C(F)(F)F)ccc1NN=C1CCCC1,9.06
7,COc1ccc(CNC(=O)c2ccc(S(=O)(=O)N3CCCC3)cc2)cc1OC,14.4
8,CCC(C)c1ccc(OCc2ccc(C(=O)OC)o2)cc1 (centres unmarked),9.55
9,Cc1nn(-c2cc(N(S(C)(=O)=O)S(C)(=O)=O)c(Cl)cc2Cl)c(=O)n1C,14.1
10,COc1ccc(C2NC(c3ccc(OC)cc3OC)C(C)C(=O)C2C)c(OC)c1.O=C(O)C(=O)O (centres unmarked),13.1
11,COCCN(C(=S)Nc1cccc(OC)c1)C1CCN(C(C)=O)CC1,16.6
12,O=C(O)c1ccc(-n2ccnc2)c([N+](=O)[O-])c1,21.6
13,CN(CC(=O)Nc1cccc(F)c1)C(=O)c1cc([N+](=O)[O-])ccc1N1CCCCC1,17.8
14,O=C(Cc1ccccc1)Nc1ccc(NC(=O)c2cccs2)c(Cl)c1,21.5
15,COc1ccc(OC)c(S(=O)(=O)ON2C(=O)c3ccccc3C2=O)c1,13.1
16,CCCC1NC(=O)NC(C)=C1C(=O)OCC (centres unmarked),2.69
17,COc1ccc(CCNC(=O)CCC(=O)N2CCOc3ccc(Cl)cc32)cc1OC,-1.92
18,O=C(NCC(c1ccc(F)cc1)N1CCOCC1)c1cccc(Br)c1 (centres unmarked),8.73
19,CC(=O)Oc1ccc(N2C(=O)C3C4C=CC(C5CC45)C3C2=O)cc1[N+](=O)[O-] (centres unmarked),-6.65
20,O=C(CN1C(=O)NC2(CCCCC2)C1=O)N1CCc2ccccc2C1,3.36
21,CC(C)CCN1C(=O)c2ccc(-c3nc4ccccc4c(=O)o3)cc2C1=O,7.95
22,O=S(=O)(c1ccc(Cl)s1)N1CCC2(CC1)OCCO2,8.78
